# Laboratory results reported in PubChem BioAssay (Tox21).
# Inconclusive results, whose numbers are uncertain, are shown with a selection of clear calls. Where the call is inconclusive, the potency comes from a doubtful curve fit. The source made the active and inactive calls. Calls come from the whole dose curve; as a rule, active = well fitted inhibition curve with a large enough effect in the signal ratio in the repeat runs (not every such curve was filed as active); inconclusive = weak or mixed curves, or effect the other way; inactive = no such curve, though single readings can be large or run the other way; the % refers to the signal ratio.
# Target: Glucocorticoid receptor (Homo sapiens) (UniProt P04150)
# Chain of UniProt P04150 (P04150 whole entry, looked up): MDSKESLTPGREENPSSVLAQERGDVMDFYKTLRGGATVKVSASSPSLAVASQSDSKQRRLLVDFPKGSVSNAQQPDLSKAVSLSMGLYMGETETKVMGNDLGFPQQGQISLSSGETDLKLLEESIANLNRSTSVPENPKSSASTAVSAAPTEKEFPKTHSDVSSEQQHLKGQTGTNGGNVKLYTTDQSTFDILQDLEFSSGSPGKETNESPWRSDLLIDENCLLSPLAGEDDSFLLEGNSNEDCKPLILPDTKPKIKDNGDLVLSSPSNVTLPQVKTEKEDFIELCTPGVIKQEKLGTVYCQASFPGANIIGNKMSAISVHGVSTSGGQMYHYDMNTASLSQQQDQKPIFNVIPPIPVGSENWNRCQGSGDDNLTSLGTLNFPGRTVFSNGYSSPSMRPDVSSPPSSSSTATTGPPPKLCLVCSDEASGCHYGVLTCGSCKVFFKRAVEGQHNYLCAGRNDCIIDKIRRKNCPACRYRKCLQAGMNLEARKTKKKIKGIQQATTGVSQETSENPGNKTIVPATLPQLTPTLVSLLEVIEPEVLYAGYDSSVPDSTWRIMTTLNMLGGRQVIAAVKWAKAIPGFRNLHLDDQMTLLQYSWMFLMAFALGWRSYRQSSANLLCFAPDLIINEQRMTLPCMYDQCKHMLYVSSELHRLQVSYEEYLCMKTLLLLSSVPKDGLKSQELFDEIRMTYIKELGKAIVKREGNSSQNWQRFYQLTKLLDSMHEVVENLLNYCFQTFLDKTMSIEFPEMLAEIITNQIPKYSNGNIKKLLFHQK
# Experiment: qHTS assay to identify small molecule antagonists of the glucocorticoid receptor (GR) signaling pathway (AID 720692)
# Settings: GR-bla HeLa, beta-lactamase FRET ratio, dexamethasone-stimulated, 18 h; activity change, negative = inhibition: at 58.5 µM (top of the series) unless noted
# In short: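 GRE-bla HeLa line, dex-stimulated (5 nM final). Compound exposure 18 h, 37 C. Beta-lactamase FRET read after 2 h RT substrate.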
# % is set by controls: 0 for no effect and ±100 for the full control effect; potency is the fitted concentration of half-maximal effect; tags give direction and shape of the fitted curve or compound fluorescence and quenching.
Compound,"activity change, negative = inhibition",Potency
CC(C)(C#N)Nc1nc(Cl)nc(NC2CC2)n1,inconclusive: 28.4%,–
CC1=CCC(O)(C(C)C)CC1 (centres undefined),–,inactive
COc1ccc2nc(NC(=O)Nc3ccccc3)sc2c1,–,"inconclusive: 3.01 µM [activator, partial curve]"
O=C1OCCO1,inconclusive: -11% [at 78.9 µM],–
CC(=O)Nc1ccc(N)cc1,–,inactive
CN1C(C)(C)CCCC1(C)C,inconclusive: 20.2%,–
O=C(Cl)c1cc(Cl)cc(Cl)c1,–,inactive
Brc1ccc(Oc2ccc(Br)cc2)cc1,–,inactive
CC(C)(C)C(=O)CC(=O)C(C)(C)C,–,inactive
CCCc1nn(C)c2c(=O)[nH]c(-c3cc(S(=O)(=O)N4CCN(C)CC4)ccc3OCC)nc12,–,inconclusive: 0.535 µM [activator]
CCCC(C)=O,inconclusive: -37.1% [at 78.9 µM],–
C=CCOCC(O)CO (centres undefined),–,inactive
Nc1nc(CC(=O)O)cs1,inconclusive: -12.4% [at 78.9 µM],–
O=C1C=CC(=O)O1,–,inactive
CCCCCCCCCCCCC(=O)O,inconclusive: 0.436% [at 78.9 µM],–
CC(O)CN(CCCN(C)C)CCCN(C)C (centres undefined),inconclusive: 18.6%,–
O=C(O)c1ccc2cc(O)ccc2c1,inconclusive: -27.8%,–
C[N+]1(CC2COC(c3ccccc3)(C3CCCCC3)O2)CCCCC1 (centres undefined),inconclusive: 11.6%,–
O=C(CO)[C@@H](O)[C@H](O)[C@H](O)CO,–,inactive
CCCN(CCC)C(=O)C(CCC(=O)O)NC(=O)c1ccccc1 (centres undefined),inconclusive: 3.8%,–

Compound,"activity change, negative = inhibition",Potency
Cc1c(N)cccc1[N+](=O)[O-],–,inactive
CCOC(CN1CCN(CC(C)C(=O)c2ccccc2)CC1)c1ccccc1 (centres undefined),inconclusive: 3.46%,–
Nc1ccc(C(=O)OCCCOC(=O)c2ccc(N)cc2)cc1,–,inactive
CC(C)c1cccc(O)c1,–,inactive
CC(C)(Sc1cc(C(C)(C)C)c(O)c(C(C)(C)C)c1)Sc1cc(C(C)(C)C)c(O)c(C(C)(C)C)c1,–,"inconclusive: 4.06 µM [inhibitor, partial curve, poor fit]"
O=C(/C=C/c1ccccc1)NCCO,inconclusive: -3.58%,–
C=CCc1cc(OC)c(O)c(C(=O)NCCO)c1,–,inactive
OC[C@@H](O)C(O)[C@@H](O)CO (some centres undefined),–,inactive
N#CCC(=O)NN,–,inactive
C[C@]12CCC(=O)C=C1C=C[C@@H]1[C@@H]2CC[C@@]2(C)[C@H]1CC[C@@]21CCC(=O)O1,–,active: 10.7 µM
[O]=[Bi],inactive: -10.6% [at 7.04 µM],–
CC(=O)NO,–,inactive
CC(C)=CCC/C(C)=C/C(=O)O,–,inactive
Nc1nc(N)c(-c2ccccc2)s1,–,inactive
CCNC(=O)NCCCOc1cccc(CN2CCCCC2)c1,inconclusive: -0.679%,–
CCCCCCCCCC#N,–,inactive
CC(C)(O)c1ccc(C(C)(C)O)cc1,inconclusive: -13.2%,–
COC(=O)/C=C\C(=O)OC,inconclusive: 16.8%,–
COc1cc(Cl)ccc1Oc1ccc(Cl)cc1Cl,inconclusive: 10.9%,–
